Measured values: PubChem BioAssay AID686979 (National Center for Advancing Translational Sciences (NCATS), 2013)
Hit rate of the full screen: of about 420,000 compounds, about 50,000 (12%) were called active. Inconclusive means that the source gave no clear call. Such entries were picked first, then a sample of the others. Calls follow the shape of the dose curve; as a rule, active = well fitted inhibition curve with a large enough effect; inconclusive = small, poorly fitted or top-dose-only effect; inactive = flat fitted curve, though single readings scatter. No potency is given beside an inconclusive call; the fits are too rough.

assay: qHTS for Inhibitors of human tyrosyl-DNA phosphodiesterase 1 (TDP1): qHTS in cells in presence of CPT; conditions: chicken DT40 Tdp1-/-;hTDP1 cells + 20 nM CPT, ATP luminescence, 48 h; activity change, negative = growth inhibition: at 46.2 µM (top of the series); also: nearly all actives have a fitted effect of over 55% in size
In short: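 Chicken DT40 Tdp1-/- cells complemented with human TDP1, 400 cells/well, exposed to compounds plus 20 nM camptothecin for at least 48 h at 37 C; viability read as ATP content by CellTiter-Glo luminescence.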
% is scaled to controls: 0 for no effect and ±100 for the full control effect; potency is read from the fitted curve at half-maximal effect; tags tell the direction and shape of the fitted curve.

For `Cc1ccccc1OCC(=O)Nc1c(C(=O)Nc2ccccc2F)oc2ccccc12`, which “activity change, negative = growth inhibition” value is on record?
The value was inactive: -21.4%.

Which Potency does the source give for `CC(=O)c1ccc(OCc2cc(C(=O)N3CCN(c4ccccc4)CC3C)no2)cc1` (centres undefined) here?
The Potency was inconclusive [inhibitor, single point].

Which “activity change, negative = growth inhibition” value does the source give for `N#CC1=C(N)OC2=C(C(=O)CCC2)C1c1cc2c(cc1Cl)OCO2` (centres undefined) here?
The value was inactive: 10.8%.

For `CN(c1ccccc1C(=O)Nc1ccc(CC#N)cc1)S(=O)(=O)c1ccccc1`, which “activity change, negative = growth inhibition” value is on record?
The value was inactive: 12.2%.

With `COc1ccc(C2CCN(Cc3cccnc3)CC2O)cc1` (centres undefined) as the compound, how does the “activity change, negative = growth inhibition” value read?
Its value is inactive: -11%.

For `Cc1cccn2c(=O)nc(SCC(=O)N3CCCC3)nc12`, which “activity change, negative = growth inhibition” value is on record?
The value was inactive: 7.61%.

With `CN(C)CCCNC(=O)/C(=C\c1ccc(-c2ccc(Br)cc2)o1)NC(=O)c1ccccc1` as the compound, how does the Potency read?
Its Potency is active: 3.66 µM.

For `O=C(c1cc2ccccc2o1)n1nnc2ccccc21`, which “activity change, negative = growth inhibition” value is on record?
The value was inactive: 0.433%.

For `CC(=O)N1N=C(c2ccc(Br)cc2)CC1c1cccc([N+](=O)[O-])c1` (centres undefined), which Potency is on record?
Its Potency is inconclusive [inhibitor, single point].

For `CN(c1ccccc1)S(=O)(=O)c1cc(C(=O)c2nccn2C)ccc1Cl`, which Potency is on record?
The Potency was inconclusive [inhibitor, single point].

Which Potency does the source give for `CCOc1ccc(NC(=O)N2CC3CCCN3c3ccccc32)cc1` (centres undefined) here?
The Potency was inconclusive [inhibitor, partial curve, poor fit].

For `O=C(CCCC(=O)c1ccccc1)NCc1ccccc1`, which “activity change, negative = growth inhibition” value is on record?
Its value is inactive: 3.94%.

With `CC(C)(C)c1ccc(C(=O)N2[C@H](COCc3ccccc3)C=CS2(=O)=O)cc1` as the compound, how does the Potency read?
The Potency was inconclusive [inhibitor, single point].

For `CN(C)C(CNC(=O)c1ccc(S(=O)(=O)Nc2cccc(C(F)(F)F)c2)cc1)c1ccco1` (centres undefined), which Potency is on record?
Its Potency is inconclusive [inhibitor, single point].

Which Potency does the source give for `CCN(CC)S(=O)(=O)c1ccc(NC(=O)COC(=O)c2cc(S(=O)(=O)Nc3ccc(OC)cc3)ccc2O)cc1` here?
Its Potency is inconclusive [inhibitor, full curve, poor fit].

For `COc1ccc(CNC(=O)CC2C[C@H](C(=O)N3CCOCC3)[C@@]3(CCC4CCCC4)c4[nH]c5ccccc5c4CCN3C2=O)cc1OC` (some centres undefined), which Potency is on record?
Its Potency is inconclusive [inhibitor, single point].

For `CC(C)c1ccc(NC(=O)C2Cc3c(-c4ccccc4Oc4ccccc4)ccnc3O2)cc1` (centres undefined), which Potency is on record?
Its Potency is inconclusive [inhibitor, single point].

For `COc1ccc(/C=C2\SC(=O)N(CCNC(=O)CCS(=O)(=O)c3ccc(C)cc3)C2=O)cc1`, which Potency is on record?
Its Potency is active: 13 µM.

With `Cc1ccnc(NC(=O)c2cc(S(=O)(=O)NCc3ccccc3)ccc2C)c1` as the compound, how does the “activity change, negative = growth inhibition” value read?
The value was inactive: -1.38%.

For `CCOC(=O)c1[nH]c2c(c1C)C(=O)CC(c1ccc(N(C)C)cc1)C2` (centres undefined), which Potency is on record?
Its Potency is inconclusive [inhibitor, single point].

For `COc1ccc(/C=N/NC(=O)CCc2ccccc2)cc1O`, which Potency is on record?
Its Potency is inconclusive [inhibitor, single point].

Which Potency does the source give for `O=C(Nc1cccc(-c2ccc(N3CCOCC3)nn2)c1)c1ccc(Cl)cc1` here?
The Potency was inconclusive [inhibitor, single point].

With `COc1ccc(CC2(CO)CCN(Cc3ccncc3)CC2)cc1` as the compound, how does the “activity change, negative = growth inhibition” value read?
The value was inactive: 8.69%.

With `CCC(C)(C)n1nnnc1C(c1cc2cc3c(cc2[nH]c1=O)OCO3)N1CCN(C)CC1` (centres undefined) as the compound, how does the “activity change, negative = growth inhibition” value read?
The value was inactive: -5.22%.

For `CC(C)CC1C(=O)N(Cc2cn(CC3CCCCC3)nn2)CCS(=O)(=O)N1Cc1ccc(-c2ccncc2)cc1` (centres undefined), which Potency is on record?
The Potency was inconclusive [inhibitor, single point].

For `COC(=O)c1ccc(CCc2cc(O)ccc2O)cc1`, which Potency is on record?
The Potency was active: 2.91 µM.

With `Cc1ccc(N(CC(=O)NCCc2ccccc2)S(=O)(=O)c2c(C)noc2C)cc1` as the compound, how does the Potency read?
Its Potency is inconclusive [inhibitor, single point].

With `O=C1CCCc2oc3ccc(NS(=O)(=O)c4cccc5cccnc45)cc3c21` as the compound, how does the Potency read?
Its Potency is inconclusive [inhibitor, partial curve].

Which Potency does the source give for `Cc1ccccc1NS(=O)(=O)c1ccc2[nH]cc(C(=O)NCCc3ccccc3)c(=O)c2c1` here?
The Potency was inconclusive [inhibitor, single point].

Which “activity change, negative = growth inhibition” value does the source give for `COC(=O)N1CCC2(CCN(C(=O)Nc3cccc(C#N)c3)CC2)CC1` here?
The value was inactive: 5.87%.

With `O=C1N(c2ccccc2C(F)(F)F)O[C@]1(c1ccccc1)C1CCCC1` as the compound, how does the “activity change, negative = growth inhibition” value read?
Its value is inactive: -20.4%.

For `Cc1ccc(OCCOCCNC(C)(C)C)c([N+](=O)[O-])c1`, which “activity change, negative = growth inhibition” value is on record?
Its value is inactive: -25.9%.

Which Potency does the source give for `Cc1ccc(C(O)c2ncc(-c3ccccc3C(F)(F)F)[nH]2)cc1F` (centres undefined) here?
Its Potency is inconclusive [inhibitor, single point].

With `CCN(CC)c1ccc(C(=O)N/N=C/c2ccccc2OC(F)F)cc1` as the compound, how does the Potency read?
The Potency was inconclusive [inhibitor, single point].

Which Potency does the source give for `C#CCOCCOCCOCCNc1nc(N2CCOCC2)nc(N2CCN(C(=O)CCCCCCCCCCNC(=O)[C@@H](CCSC)n3cc(CCO)nn3)CC2)n1` here?
Its Potency is inconclusive [inhibitor, single point].

For `COc1ccc(C2=NN(S(C)(=O)=O)C(c3ccc4nccnc4c3)C2)cc1` (centres undefined), which activity change, negative = growth inhibition is on record?
The activity change, negative = growth inhibition was inconclusive: -30.4% [inhibitor].

For `N/C(Cc1ccc(Cl)cc1)=N\OC(=O)c1ccccc1`, which Potency is on record?
Its Potency is inconclusive [inhibitor, single point].

With `COC(=O)c1cnc(N2CCN(c3ccc(OC)cc3)CC2)c2ccccc12` as the compound, how does the Potency read?
Its Potency is inconclusive [inhibitor, single point].

For `COc1ccc(-n2c(CN3CCC(C)CC3)nc3ccc([N+](=O)[O-])cc3c2=O)c(OC)c1`, which Potency is on record?
The Potency was active: 18.4 µM.

With `Cc1cc(C)n(-c2nc3ccccc3nc2Nc2ccc3[nH]c(=O)[nH]c3c2)n1` as the compound, how does the Potency read?
Its Potency is inconclusive [inhibitor, partial curve].

Which Potency does the source give for `CCOC(=O)Nc1cccc(Nc2ccccc2)c1` here?
Its Potency is inconclusive [inhibitor, partial curve].

Which Potency does the source give for `CCCSC1=N/C(=C\c2ccc([N+](=O)[O-])o2)C(=O)S1` here?
Its Potency is active: 20.6 µM.

Which Potency does the source give for `O=C(O)CSc1cc(C(=O)c2cc(F)ccc2O)cn2c(=O)c3c(-c4ccccc4)csc3nc12` here?
The Potency was inconclusive [inhibitor, partial curve].

For `Cc1nn(-c2ccccc2)c(C)c1C(=O)Nc1nnc(-c2ccco2)o1`, which Potency is on record?
The Potency was inconclusive [inhibitor, single point].
